According to PMC7863878:
Results are given in words; binding and its absence hold for the method and conditions named. For part of these data: In cells and extracts the contact can be indirect. Some entries that bind do so weakly or less than the wild type. For part of these data: Sequences can lack the tags named with a protein. One block for each molecule: values may come before it.

Protein sequences, listed by entry. Tags and fused reporters are not part of them. Lines headed by an entry give the natural chain unless they say otherwise; changes in a name come on top. Chains listed by the source or under a name are the forms on record and can include a tag or linker. Residues count along the entry.
UniProt O35433: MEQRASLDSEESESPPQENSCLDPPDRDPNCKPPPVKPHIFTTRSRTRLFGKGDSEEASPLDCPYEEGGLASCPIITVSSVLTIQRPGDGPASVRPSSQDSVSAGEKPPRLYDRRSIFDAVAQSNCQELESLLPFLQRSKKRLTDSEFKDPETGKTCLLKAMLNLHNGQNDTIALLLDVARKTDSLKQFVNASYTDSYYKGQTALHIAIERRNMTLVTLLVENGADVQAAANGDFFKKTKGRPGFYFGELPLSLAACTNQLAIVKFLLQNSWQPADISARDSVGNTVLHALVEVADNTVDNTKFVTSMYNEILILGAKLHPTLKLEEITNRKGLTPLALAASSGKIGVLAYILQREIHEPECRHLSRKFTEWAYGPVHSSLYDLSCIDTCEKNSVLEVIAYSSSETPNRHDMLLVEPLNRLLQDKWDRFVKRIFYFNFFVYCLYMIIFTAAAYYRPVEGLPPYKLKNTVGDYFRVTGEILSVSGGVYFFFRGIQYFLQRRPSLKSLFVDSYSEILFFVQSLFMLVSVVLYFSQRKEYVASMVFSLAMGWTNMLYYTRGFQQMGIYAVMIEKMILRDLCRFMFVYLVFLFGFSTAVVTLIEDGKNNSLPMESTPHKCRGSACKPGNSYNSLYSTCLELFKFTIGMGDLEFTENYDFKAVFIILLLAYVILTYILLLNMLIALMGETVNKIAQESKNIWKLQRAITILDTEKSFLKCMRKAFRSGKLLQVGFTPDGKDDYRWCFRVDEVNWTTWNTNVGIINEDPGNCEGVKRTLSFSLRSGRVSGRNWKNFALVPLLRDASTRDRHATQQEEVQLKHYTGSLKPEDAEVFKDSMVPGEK
V1N-GST (GST-fusion protein containing the N terminus of TRPV1): residues 1-433 of O35433
FLAG-1–359 (TRPV1 N-terminal truncation aa 1–359): residues 1-359 of O35433
FLAG-1–110 (TRPV1 membrane-distal domain, aa 1–110): residues 1-110 of O35433
FLAG-111–433 (TRPV1 N-terminal truncation aa 111–433): residues 111-433 of O35433
FLAG-111–359 (TRPV1 N-terminal truncation aa 111–359): residues 111-359 of O35433
UniProt Q704Y3: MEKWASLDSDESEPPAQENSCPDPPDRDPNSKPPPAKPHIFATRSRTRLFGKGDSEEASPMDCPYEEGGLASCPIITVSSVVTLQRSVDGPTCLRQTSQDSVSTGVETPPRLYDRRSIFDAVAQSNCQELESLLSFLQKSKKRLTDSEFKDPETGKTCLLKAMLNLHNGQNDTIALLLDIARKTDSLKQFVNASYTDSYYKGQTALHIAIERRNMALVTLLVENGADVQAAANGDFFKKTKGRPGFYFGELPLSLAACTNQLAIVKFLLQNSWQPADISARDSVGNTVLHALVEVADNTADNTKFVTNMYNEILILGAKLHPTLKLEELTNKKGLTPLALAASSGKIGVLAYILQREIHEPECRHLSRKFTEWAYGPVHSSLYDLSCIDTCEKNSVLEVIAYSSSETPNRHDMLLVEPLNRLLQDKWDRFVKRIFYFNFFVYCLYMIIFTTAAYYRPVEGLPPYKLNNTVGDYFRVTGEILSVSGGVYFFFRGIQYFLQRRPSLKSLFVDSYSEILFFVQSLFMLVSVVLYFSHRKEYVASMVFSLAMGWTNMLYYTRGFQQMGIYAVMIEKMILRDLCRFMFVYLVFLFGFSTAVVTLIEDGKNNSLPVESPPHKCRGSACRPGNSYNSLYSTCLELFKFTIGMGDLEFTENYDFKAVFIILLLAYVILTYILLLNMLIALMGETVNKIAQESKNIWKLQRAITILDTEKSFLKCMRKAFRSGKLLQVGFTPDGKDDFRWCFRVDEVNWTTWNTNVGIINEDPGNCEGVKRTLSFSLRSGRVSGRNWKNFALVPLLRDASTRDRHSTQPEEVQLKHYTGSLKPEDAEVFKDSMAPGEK
TRPV1 N terminus (aa 1–433) fused to the GAL4 DNA-binding domain (V1-Nt-pGBKT7): residues 1-433 of Q704Y3

What was measured:
Kvβ1-FLAG (mouse) = target: T1, Kvβ1-FLAG (mouse) (UniProt P63143); test: co-IP; HEK 293T cells co-transfected; Nonidet P-40 lysis buffer (20 mM Tris-HCl pH 7.4, 150 mM NaCl, 1 mM EDTA, 1% NP-40); IP with anti-FLAG; washes with buffer containing 0.5 M NaCl; immunoblot with anti-GFP, anti-HA, anti-FLAG
T1 sequence: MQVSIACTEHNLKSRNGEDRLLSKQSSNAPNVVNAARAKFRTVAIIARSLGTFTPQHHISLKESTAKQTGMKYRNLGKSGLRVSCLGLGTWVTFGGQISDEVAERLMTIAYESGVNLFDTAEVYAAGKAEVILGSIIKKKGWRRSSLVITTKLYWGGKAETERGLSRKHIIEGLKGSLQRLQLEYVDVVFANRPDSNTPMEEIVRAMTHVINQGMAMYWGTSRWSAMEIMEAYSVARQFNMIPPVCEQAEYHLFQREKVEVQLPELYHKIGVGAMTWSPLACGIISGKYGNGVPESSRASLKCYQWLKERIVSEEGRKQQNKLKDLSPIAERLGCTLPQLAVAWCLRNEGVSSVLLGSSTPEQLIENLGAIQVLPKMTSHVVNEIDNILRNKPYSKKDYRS

[1] = target: T2, Kvβ2 (used as bait beside Kvβ1-FLAG, Fig. S3) (mouse) (UniProt P62482); test: as above
T2 sequence: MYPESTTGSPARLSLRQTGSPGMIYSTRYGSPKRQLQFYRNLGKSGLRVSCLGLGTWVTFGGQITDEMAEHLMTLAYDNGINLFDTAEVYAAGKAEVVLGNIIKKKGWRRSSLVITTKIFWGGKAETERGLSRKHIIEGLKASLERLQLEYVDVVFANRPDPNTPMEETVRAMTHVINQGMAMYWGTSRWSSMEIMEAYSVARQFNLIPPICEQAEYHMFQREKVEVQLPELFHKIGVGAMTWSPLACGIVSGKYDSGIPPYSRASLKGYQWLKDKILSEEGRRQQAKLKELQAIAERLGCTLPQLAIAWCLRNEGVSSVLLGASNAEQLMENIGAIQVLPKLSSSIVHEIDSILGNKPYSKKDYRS

[2] = target: T3, FLAG-218–401 (Kvβ1 truncation aa 218–401) (mouse) (UniProt P63143); test: as above
T3 sequence: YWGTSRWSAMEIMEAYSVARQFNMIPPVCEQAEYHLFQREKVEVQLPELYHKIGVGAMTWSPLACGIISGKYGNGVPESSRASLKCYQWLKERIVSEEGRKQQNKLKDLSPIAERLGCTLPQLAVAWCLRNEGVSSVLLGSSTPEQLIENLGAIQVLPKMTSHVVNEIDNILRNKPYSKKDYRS

[3] = target: T4, FLAG-73–217 (Kvβ1 truncation aa 73–217) (mouse) (UniProt P63143); test: as above
T4 sequence: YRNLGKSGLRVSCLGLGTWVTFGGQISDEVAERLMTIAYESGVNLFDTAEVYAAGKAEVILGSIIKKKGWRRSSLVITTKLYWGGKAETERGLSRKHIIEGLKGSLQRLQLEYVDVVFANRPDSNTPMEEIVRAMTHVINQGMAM

[4] = target: FLAG-111–359 (TRPV1 N-terminal truncation aa 111–359) (rat) (UniProt O35433); test: as above
[5] = target: FLAG-111–433 (TRPV1 N-terminal truncation aa 111–433) (rat) (UniProt O35433); test: as above
[6] = target: FLAG-1–110 (TRPV1 membrane-distal domain, aa 1–110) (rat) (UniProt O35433); test: as above
[7] = target: FLAG-1–359 (TRPV1 N-terminal truncation aa 1–359) (rat) (UniProt O35433); test: as above
TRPV1-FLAG (rat) = TRPV1-FLAG (rat) (UniProt O35433); test: as above
[8] = target: V1-Nt-FLAG (FLAG-tagged TRPV1 N terminus) (rat) (UniProt O35433); test: as above
[9] = target: endogenous TRPV1 of mouse DRG neurons (mouse (endogenous in DRG)) (UniProt Q704Y3); test: co-IP; homogenised mouse DRG; IP with anti-TRPV1 or control IgG; immunoblot with anti-TRPV1 or anti-Kvβ1; endogenous proteins
[10] = target: V1N-GST (GST-fusion protein containing the N terminus of TRPV1) (rat) (UniProt O35433); test: pull-down; GST fusion or GST on GSH-Sepharose beads incubated with HEK 293T extract expressing FLAG-Kvβ1, 4 °C overnight, Nonidet P-40 lysis buffer; washes with 0.5 M NaCl; immunoblot; only the target purified
[11] = target: TRPV1 N terminus (aa 1–433) fused to the GAL4 DNA-binding domain (V1-Nt-pGBKT7) (mouse) (UniProt Q704Y3); test: two-hybrid; yeast two-hybrid experiment referred to in the text only, no figure; format not told

binding (Kvβ1-FLAG (mouse)): binds
binding [1]: no binding
Molecule: TRPV1 MPD domain (aa 359–433) (from UniProt O35433 359-433) (domain or fragment)

binding [2]: binds
binding [3]: binds
binding (Kvβ1-FLAG (mouse)): binds
Molecule: TRPV1-HA (from UniProt O35433 1-838)

binding [4]: no binding
binding [5]: binds
binding [6]: binds
binding [7]: binds
binding (TRPV1-FLAG (rat)): binds
binding [8]: binds
B1: Kvβ1-GFP (protein, UniProt P63143 1-401)
chain: T1 sequence

binding [9]: binds
B2: endogenous Kvβ1 of mouse DRG neurons (protein, UniProt P63143 1-401)
chain: T1 sequence

binding [10]: binds
B3: Kvβ1-FLAG (protein, UniProt P63143 1-401)
chain: T1 sequence

binding [7]: binds
B4: Kvβ2 (precipitated by FLAG-tagged TRPV1 segments, Fig. S3) (protein, UniProt P62482 1-367)
chain: T2 sequence

binding [11]: binds
B5: Kvβ1 aa 218–401 segment (yeast two-hybrid) (domain or fragment, UniProt P63143 218-401)
chain: T3 sequence
